Reference: PubChem BioAssay AID493208 (National Center for Advancing Translational Sciences (NCATS), 2011)
Hit rate of the full screen: of about 44,000 compounds, about 340 (0.77%) were called active. This list was built around the results that the source calls inconclusive (neither active nor inactive); the mix of calls is not that of the screen. The call rests on the fitted dose curve; in most records, active means well fitted inhibition curve with a large enough effect; inconclusive means small, poorly fitted or top-dose-only effect; inactive means flat fitted curve, though single readings scatter. No potency is given beside an inconclusive call; the fits are too rough.
Potency means the concentration at half of the fitted maximal effect; tags describe the fitted curve by direction and shape.

Assay: Acumen qHTS Assay for Inhibitors of the mTORC1 Signaling Pathway in MEF (Tsc2-/-, p53-/-) Cells: Sytravon; further: nearly all actives have a fitted effect of over 50% in size
Details: phospho-rpS6 immunofluorescence/PI, 24 h; series mostly up to 38.3 µM
Outline: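 Tsc2-/-, p53-/- MEFs (empty-vector stable line) in DMEM + 10% FBS were treated with compounds 24 h at 37 degree Celsius, fixed, and immunostained for phospho-rpS6 (Alexa-488) with propidium iodide counterstain. Laser-scanning cytometry gave % positive cells, normalized against 7.5 nM rapamycin and DMSO.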
With `CCCCS(=O)(=O)c1oc(-c2cccs2)nc1S(=O)(=O)c1ccccc1` the Potency was active: 0.414 µM.
For `COc1cc(/C=C/c2nc(C#N)c(N3CCCCCC3)o2)cc(OC)c1OC`, the Potency was inconclusive [falling, partial curve, poor fit].
With `O=C(CSc1nccn1Cc1ccco1)Nc1ccc(F)cc1` the Potency was “inactive”.
In the case of `COc1cc(NC(=O)c2nnn(Cc3ccc(F)cc3)c2N)cc(OC)c1`, the Potency is reported as inconclusive [falling, full curve, poor fit].
With `Cc1ccccc1C(=O)N1CCC(c2nc3ccccc3s2)CC1` the Potency was inconclusive [falling, single point].
For `CCn1c(=O)cc(SCC(=O)Nc2ccc(C)c(F)c2)c2ccccc21`, the Potency was “inactive”.
For `CCc1ccccc1N(C)C(=O)c1cn(CC(C)C)c(=O)c2cc(OC)c(OC)cc12`, the Potency was inconclusive [falling, single point].
In the case of `COc1ccc(OC)c(NC2=C(c3ccccc3)C(=O)c3ccccc32)c1`, the Potency is reported as inconclusive [falling, partial curve, poor fit].
For `Cc1nn(-c2ccc(F)cc2)c(-n2cccc2)c1C(=O)N1CCN(c2ccc(F)cc2)CC1`, the Potency was “inactive”.
In the case of `O=C(CSc1ccc(-c2ccccn2)nn1)Nc1ccc(F)c(F)c1`, the Potency is reported as inconclusive [falling, partial curve, poor fit].
In the case of `O=C(Nc1ccc2oc(-c3ccc(O)c(Br)c3)nc2c1)c1cc2ccccc2o1`, the Potency is reported as inconclusive [falling, partial curve, poor fit].
With `Cc1ccc(S(=O)(=O)Cc2ccc(C(=O)N3CCN(c4cccc(C)c4C)CC3)o2)cc1` the Potency was inconclusive [falling, single point].
With `CC(C)(C)c1ccc(S(=O)(=O)NCc2ccc3c(c2)CCN3C(=O)c2ccccc2)cc1` the Potency was inconclusive [falling, single point].
With `CCOC(=O)c1cccc(NC(=O)c2cc3sccc3n2Cc2ccc(Cl)cc2)c1` the Potency was inconclusive [falling, full curve].
With `O=C(CSc1cn(CCNC(=O)c2ccccc2F)c2ccccc12)Nc1ccc2c(c1)OCCO2` the Potency was inconclusive [falling, partial curve, poor fit].
With `COc1ccc(NC(=O)CCS(=O)(=O)c2cc(Br)cc3c2N(C(C)=O)CC3)c(OC)c1` the Potency was “inactive”.
In the case of `CCCCC(=O)Nc1nnc(S(=O)(=O)N2CCCCCC2)s1`, the Potency is reported as inconclusive [falling, partial curve, poor fit].
With `CCCS(=O)(=O)c1c(S(=O)(=O)CCC)c2cc(C(C)(C)C)ccn2c1C(=O)c1ccc(OC)c(OC)c1` the Potency was inconclusive [falling, partial curve, poor fit].
For `CCc1cccc(NC(=O)Cn2c(C(=O)OC)cc3occc32)c1`, the Potency was “inactive”.
In the case of `Cc1ccc(-c2noc(CN(C3CCCCC3)S(=O)(=O)c3ccc(C)cc3)n2)cc1`, the Potency is reported as inconclusive [falling, single point].
With `Cc1ccc(-c2cn3c(n2)sc2cc(C(=O)N4CCCCC4)ccc23)cc1` the Potency was inconclusive [falling, partial curve, poor fit].
In the case of `Cc1ccnc(NC(c2ccccc2F)c2ccc3cccnc3c2O)c1` (configuration not stated), the Potency is reported as inconclusive [falling, full curve, poor fit].
In the case of `Cc1cc(C)cc(C(=O)Nc2ccc(-c3nc4ncccc4o3)cc2)c1`, the Potency is reported as inconclusive [falling, partial curve, poor fit].
For `COc1c(C)cc(S(=O)(=O)NCCc2c(C)[nH]c3ccccc23)c(C)c1C`, the Potency was inconclusive [falling, single point].
In the case of `CCOc1ccc(-c2nonc2NC(=O)c2oc3cc(C)ccc3c2C)cc1`, the Potency is reported as inconclusive [falling, single point].
In the case of `CCc1cccc(-n2c(C)nc3c(cnn3-c3ccc(Cl)cc3)c2=O)c1`, the Potency is reported as inconclusive [falling, full curve, poor fit].
For `Cc1cc(C)cc(NC(=O)N2CCC(N3CCCCC3)CC2)c1`, the Potency was “inactive”.
In the case of `CCc1ccc(N=C2NC(=O)CC(C(=O)Nc3ccc(OC)cc3)S2)cc1` (configuration not stated), the Potency is reported as inconclusive [falling, single point].
For `Cc1ccc(C)c(N2CCN(C(=O)C3CCN(c4nc(-c5ccc(C(C)C)cc5)no4)CC3)CC2)c1`, the Potency was “inactive”.
For `O=C(Nc1ccc(NC(=O)c2cc3ccccc3o2)cc1)c1ccccc1`, the Potency was “inactive”.
With `COc1cc(Nc2nc(SCC(=O)c3ccc(Cl)c(Cl)c3)nc3ccccc23)cc(OC)c1` the Potency was active: 11.7 µM.
For `COc1ccccc1Nc1ncnc2scc(-c3ccc(F)cc3)c12`, the Potency was “inactive”.
For `Cc1ccc(S(=O)(=O)c2nc(-c3ccc(F)cc3)oc2N2CCN(c3ccccc3)CC2)cc1`, the Potency was “inactive”.
For `COc1ccc(CNC(=O)c2cccn2-c2nnc(N3CCCC3)s2)c(OC)c1`, the Potency was inconclusive [falling, partial curve, poor fit].
For `O=C(Cn1c(=O)c2cccn2c2ccccc21)NCc1ccccc1F`, the Potency was inconclusive [falling, partial curve, poor fit].
For `CCOC(=O)c1c(NC(=O)c2nc(SCC)ncc2Cl)sc2c1CCCC2`, the Potency was “inactive”.
In the case of `COc1ccc(C(=O)NCC(c2cccnc2)N2CCN(c3ccccc3)CC2)cc1` (configuration not stated), the Potency is reported as inconclusive [falling, partial curve, poor fit].
In the case of `COc1cccc2c1cc1c(=O)n(CC(=O)N3CCCCC3)nc(C)n12`, the Potency is reported as “inactive”.
In the case of `COc1ccc(Nc2ncc(C(=O)N3CCN(c4ccc(OC)cc4)CC3)c3ccccc23)cc1`, the Potency is reported as “inactive”.
For `COc1ccc(C(C(=O)Nc2ccc(C(C)C)cc2)N(C)C(=O)Cc2cccs2)cc1` (configuration not stated), the Potency was inconclusive [falling, partial curve, poor fit].
With `CCn1c2ccccc2c2cc(CN3CCN(Cc4ccc(OC)c(OC)c4)CC3)ccc21` the Potency was inconclusive [falling, single point].
With `CCOc1ccc(CC(=O)NCCS(=O)(=O)N2CCN(c3ccc(OC)cc3)CC2)cc1` the Potency was “inactive”.
